This is one part of the list.

This note sets out measurements from PMC12136788.

B1: chr7:138585310:138585366:+|3pUTR|ENSG00000122779|msi1_unk|FALSE|overlapping (ssRNA)
RNA: GGGAGUUCUACAGUCCGACGAUCCUCUUUAAGUUGAAAAGUAAAAAAUAUAUGUGGUUUGGAUGUGUGCUUUAAUUCAGCUUUAGAAAUUAAUACCACUACCCGUGAAUUAUAUGGCCUGACAAUAUGAAUUAGGUGUACUGUCAACAGAGGAUUGAGCAUCA
B2: chr9:88477803:88477904:+|3pUTR|ENSG00000106723|msi1|total|mutant (ssRNA)
RNA: GGGAGUUCUACAGUCCGACGAUCGACAAUACAAGACAUGAAUCUAUGUAUAAAAUUUAUCGGCCUUUCUCAUUUACCUGCUCCCGUAUUAUUGUAUUGUGUGUGCGUGCGUGUGUGAUGUCAGGCUGCCACGUAAAACUUCAGCAACAGAGGAUUGAGCAUCA
B3: chr1:84929557:84929679:-|CDS|ENSG00000153898|control|control|control (ssRNA)
RNA: GGGAGUUCUACAGUCCGACGAUCAAAUUCCAACAGAAUGGGUUUCCUGAAACGGAUUUGCAGGAAUUCCUGAAGGAAUGCAGUAGCAAAGAAGAGUAUCAGAAAGAGUCCUCAGCCUUCCUGUCCUGCAUCUGCUGUCGGAGGCAACAGAGGAUUGAGCAUCA
B4: chr3:31636526:31636632:+|3pUTR|ENSG00000163527|unk|total|mutant (ssRNA)
RNA: GGGAGUUCUACAGUCCGACGAUCCAAAAUGUGAUGAGAGCUUCUUGAACCGGUAAACCCGUACAGGUCUGAGAAAGACAUAUCCGAAGAAUCAUUAUACUUCCUUGAAUUAUAUUUAUUUUCAUGUUUCUCUAAUGCAAAGAACAACAGAGGAUUGAGCAUCA
B5: chr9:34253332:34253433:-|3pUTR|ENSG00000186638|unk|total|mutant (ssRNA)
RNA: GGGAGUUCUACAGUCCGACGAUCCUCUGAAACAGAAUUCACACACAAACCUUCAGCCAAGUUCUGCCUGCUGUGUAUCUUUUCCGCAGGAAGCAGCUCAGGACAGGGAAGACAAAGCCGCCUCCAGGUGCCAAUUACUUUAAACAACAGAGGAUUGAGCAUCA
B6: chr5:113567122:113567223:+|CDS|ENSG00000047188|unk|total|mutant (ssRNA)
RNA: GGGAGUUCUACAGUCCGACGAUCAAACUCUGAGAAUUGGGCUGUCGUUAAAGCUGCAUUGGUGGCAGGCAUGUAUCCUAAUUCCGUCCACGUGGACAGAGAGAAUCCCGUGUUGACAGGGCCAAAGGAGAAAAAAGUACGAUUCAACAGAGGAUUGAGCAUCA
B7: ENSG00000198589:be:win_2951|CDS|ENSG00000198589|bound_else_gene|NA|bound_elsewhere_windowed (ssRNA)
RNA: GGGAGUUCUACAGUCCGACGAUCAUUUCACCACAAAUGGUAAUGAAAAUUCAAGUAUAGAGAAGACAAGUUCACUAGAAUCUGCAUCUAAUAUUGAACUGCAAACUACUAAUACAUCUUAUGAAGAAAUGAAAGCUGAGCAAGCAACAGAGGAUUGAGCAUCA
B8: chr15:58597255:58597356:-|3pUTR|ENSG00000137845|unk|FALSE|unique (ssRNA)
RNA: GGGAGUUCUACAGUCCGACGAUCUGGAAAAGGAACCCAAUUUUCUUAUGAACAGAUAUUUUUAACUUAAUGGCACAAAGUCUUAGAAUAUUAUUAUGUGCCCCGUGUUCCCUGUUCUUCGUUGCUGCAUUUUCUUCACUUGCACAACAGAGGAUUGAGCAUCA
B9: chr10:116663695:116664169:-|three_prime_utr|ENSG00000165863|control|control|control (ssRNA)
RNA: GGGAGUUCUACAGUCCGACGAUCCUUUCCUUCCUACUACCGUUUUAAAAAGGGGAUGAAAUGUUUGCAGUGGCCUUUCUGCUUAGCUGGGCCAGCUCCCUGCAACUCACACGGACGGUUCCUCUCCUAGAUGGAAGCUGCCCUCAACAGAGGAUUGAGCAUCA
B10: chr3:141443649:141443750:+|CDS|ENSG00000177311|unk|total|mutant (ssRNA)
RNA: GGGAGUUCUACAGUCCGACGAUCCCUACCAUUGGACAAAAUGGAGGUUCAUUCACAGGUCCAGAACCUUUAUUAUCUGAAAACCGGAUUGGUGAAUUUUCCAGUACCGGAAGUACUUUGCCAGACACGGACCACAUGGUUAAACAACAGAGGAUUGAGCAUCA
B11: chr19:36009119:36009553:-|three_prime_utr|ENSG00000239382|control|control|control (ssRNA)
RNA: GGGAGUUCUACAGUCCGACGAUCGCUGGUGCUCCGCGGCCCCGCCUACACGCGUCUUCUCCACGGCAUCGCCGCCGCCCGCGUAGACGCGCUGGACGCCGCCUCCUCGCCGCCCAAUGCGGCAGCCUGCCCGUCGGCGCGGCCCAACAGAGGAUUGAGCAUCA
B12: chr9:136477283:136477384:-|CDS|ENSG00000148396|msi1|total|mutant (ssRNA)
RNA: GGGAGUUCUACAGUCCGACGAUCGCCCCCGCAGGGUUUUCUCAGCACCCCGGUUUGCUUGUUCCUCACACACAUGCCAGAGACCGCUCUCAGGGACCCUGUGAGCCCCUGCCUGGACCUCUGACACAGCCCAGAGCACAUGCCCAACAGAGGAUUGAGCAUCA
B13: chr21:39342314:39343159:-|three_prime_utr|ENSG00000205581|control|control|control (ssRNA)
RNA: GGGAGUUCUACAGUCCGACGAUCCCCUUCUUGUACAAUCCAGAGGAAUAUUUUUAUCAACUAUUUUGUAAAUGCAAGUUUUUUAGUAGCUCUAGAAACAUUUUUAAGAAGGAGGGAAUCCCACCUCAUCCCAUUUUUUAAGUGCAACAGAGGAUUGAGCAUCA
B14: ENSG00000087460:stop:overlap|stop_codon|ENSG00000087460|stop_codon|NA|stop_codon (ssRNA)
RNA: GGGAGUUCUACAGUCCGACGAUCGAGGCGCCUUCGGCUCGGGCCAUGGCGCCCGGCGCCGGGGGCGCGAGGAGCGGCUCAUCUAGUCAGACCCCCCACCCCGCCACCGCCACCAGACACCACCAUCGCUGUGUAGUGUGCUGGCAACAGAGGAUUGAGCAUCA
B15: chr3:127036549:127036650:+|3pUTR|ENSG00000114554|msi1|total|mutant (ssRNA)
RNA: GGGAGUUCUACAGUCCGACGAUCGUCUACUGGGACAGCAGUCUCCGAGCUACUCCGUACCUCCCUCUGCCAGGUCGUGGAGUCCGGCCCCAGUCCCUACUUGUCACUGGUUCCCACUGUGCUCCUAACUGUGCAGCACCUGGGCAACAGAGGAUUGAGCAUCA
B16: ENSG00000107863:be:win_5051|CDS|ENSG00000107863|bound_else_gene|NA|bound_elsewhere_windowed (ssRNA)
RNA: GGGAGUUCUACAGUCCGACGAUCGUUUAGAUAGCCGGAGACAGCUCUUCAGUUCCCAUAAACUCAUCGAAUGUGAUACUCUUUCCAGGAAAAAAUCAGCUAGAUUCAAGUCAGAUAGUGGAAGUCUAGGAGAUGCCAAGAAUGCAACAGAGGAUUGAGCAUCA
B17: chr12:39550845:39550946:-|3pUTR|ENSG00000173208|unk|FALSE|unique (ssRNA)
RNA: GGGAGUUCUACAGUCCGACGAUCGGUUCCAAGUAUAGUUUCAUAUUUGGCAAUAGAUUCAUCUUAUUCUAAUAUGUUUGGAAUAGCUUUUUGAUUCAAUGAGUCUAGGAAAAUCUGUUACACAUUGAAACCCAAGUCCAGAGACAACAGAGGAUUGAGCAUCA
B18: chr6:53267885:53267986:-|3pUTR|ENSG00000012660|msi1_unk|FALSE|overlapping (ssRNA)
RNA: GGGAGUUCUACAGUCCGACGAUCUUUAAUGUAAAUCUAAUAGUACUUGUAAUUUCUUUCUGCUUAGAAUCUAAAGAUGUGUUUAGAACCUCUUGUUUAAAAAUAAUAGACUGCUUAUCAUAAAAUCACAUCUCACACAUUUGACAACAGAGGAUUGAGCAUCA
B19: chr17:58495858:58495960:-|CDS|ENSG00000108389|unk|FALSE|unique (ssRNA)
RNA: GGGAGUUCUACAGUCCGACGAUCAGAAGAGACUAAGGGACCAGCUCCAGACCCUUCUGCCCAGGAUGAGCUGGGUAGGACUUUAGAUGGCAUAGGGGAGCCACCUGAACAUUGUCCUGAAACAGAAGCUGUCAGUGCACUCUCCAACAGAGGAUUGAGCAUCA
B20: chr17:8173470:8173636:-|3pUTR|ENSG00000179029|msi1|total|mutant (ssRNA)
RNA: GGGAGUUCUACAGUCCGACGAUCUGUUUGUCUGUAUCGUCAGGUGGGAUAAUCCUUACCUGUUCCUCCUCCGGAGGGCAGAUCCGAACAUGAUGAUUGGAGAUGCAUGAAACGUGAUUAACGUCUCUGCGUAAUCAGGACUUGCAACAGAGGAUUGAGCAUCA
B21: chr22:24226630:24226767:-|CDS|ENSG00000099998|control|control|control (ssRNA)
RNA: GGGAGUUCUACAGUCCGACGAUCCUUCUCAACAGAGUCUAUGGCCAGGCCUGAAGGGAGGGUGAACGUGUACCACCACCUUGUAGAGACGCUCAAGUUUGCCAAGGGGCAGAGGUGGAGGCUGGGGGACCCUCGAAGCCACCCCAACAGAGGAUUGAGCAUCA
B22: ENSG00000066933:stop:overlap|stop_codon|ENSG00000066933|stop_codon|NA|stop_codon (ssRNA)
RNA: GGGAGUUCUACAGUCCGACGAUCAUAGCUCAGAGAAUUUGAAUAUGGAGUCUGAAUAUGCUAUCUCUGAGAAAUCAGAAGCUUAGCCCUUAGCUCCCUGAAGACAGCUGGCAAGUCUGAACCUUCCAGCAAGUUGCGAAAGCACAACAGAGGAUUGAGCAUCA

For this test, the target named is MSI1 full-length (mouse, UniProt Q61474 1-362). The test is described as follows: nsRBNS (natural sequence RNA bind-n-seq); RBNS binding buffer (assumed for nsRBNS): 25 mM Tris pH 7.5, 150 mM KCl, 3 mM MgCl2, 0.01% Triton X-100, 500 ug/ml BSA, 20 U/ml SUPERase-In, 4 C; UNK is unkempt and MSI1 is Musashi-1; names of the RNAs are library labels; protein concentration not given here; high values mean tight binding.
Chain of UniProt Q61474 (Q61474 whole entry): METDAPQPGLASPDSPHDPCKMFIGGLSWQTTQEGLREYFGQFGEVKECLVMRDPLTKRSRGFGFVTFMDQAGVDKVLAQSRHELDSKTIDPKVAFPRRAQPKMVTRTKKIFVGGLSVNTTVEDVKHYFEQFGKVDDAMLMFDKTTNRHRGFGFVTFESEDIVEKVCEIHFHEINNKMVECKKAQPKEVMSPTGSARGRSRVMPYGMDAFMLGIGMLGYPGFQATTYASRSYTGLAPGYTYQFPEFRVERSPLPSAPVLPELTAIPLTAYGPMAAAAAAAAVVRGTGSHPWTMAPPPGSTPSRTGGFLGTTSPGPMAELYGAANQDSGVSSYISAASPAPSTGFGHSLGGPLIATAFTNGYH
The molecule B1 showed a binding signal of 4.02 enrichment R.

Regarding B2, the binding signal came to 0.449 enrichment R.

The molecule B3 yielded a binding signal of 0.635 enrichment R.

Regarding B4, the binding signal is 0.225 enrichment R.

Regarding B5, the binding signal is 0.52 enrichment R.

On to B6, for which the binding signal came to 0.446 enrichment R.

B7 displayed a binding signal of 0.486 enrichment R.

With B8, the binding signal turned out to be 7.03 enrichment R.

Turning to B9, the binding signal is 0.509 enrichment R.

As for B10, the binding signal came to 0.294 enrichment R.

As for B11, the binding signal was 0.439 enrichment R.

In the case of B12, the binding signal came out at 0.53 enrichment R.

As to B13, the binding signal is 3.5 enrichment R.

As to B14, the binding signal came to 0.204 enrichment R.

Consider B15, for which the binding signal came to 0.462 enrichment R.

B16 came in with a binding signal of 0.921 enrichment R.

B17 showed a binding signal of 0.329 enrichment R.

With B18, the binding signal stood at 26.6 enrichment R.

With B19, the binding signal turned out to be 0.568 enrichment R.

B20 had a binding signal of 0.396 enrichment R.

In turn, B21 had a binding signal of 0.57 enrichment R.

Consider B22, for which the binding signal was 16.9 enrichment R.
